Paper PMC4536226
Results are given in words; binding and its absence hold for the method and conditions named. Binding seen in cells or lysates may run through a third protein. Some results given as binding are weak or reduced against the parent protein; the word gives no strength. Tags and fused reporters may be left off the sequences shown.

T1: Fu361-805 (Drosophila) (UniProt P23647)
T1 sequence: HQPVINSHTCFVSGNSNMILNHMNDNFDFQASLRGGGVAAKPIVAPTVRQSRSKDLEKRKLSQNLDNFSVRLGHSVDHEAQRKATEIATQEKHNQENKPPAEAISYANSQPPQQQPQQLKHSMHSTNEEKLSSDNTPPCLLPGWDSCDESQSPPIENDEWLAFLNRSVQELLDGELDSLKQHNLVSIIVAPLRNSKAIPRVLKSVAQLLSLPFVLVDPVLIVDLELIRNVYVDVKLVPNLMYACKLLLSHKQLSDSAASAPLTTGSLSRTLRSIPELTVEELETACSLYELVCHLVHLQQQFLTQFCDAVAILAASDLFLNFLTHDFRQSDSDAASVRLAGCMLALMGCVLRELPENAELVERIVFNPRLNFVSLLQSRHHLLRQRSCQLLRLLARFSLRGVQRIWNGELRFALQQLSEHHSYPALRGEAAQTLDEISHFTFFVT

T2: Fu^K33AΔ361–390 (Drosophila) (UniProt P23647)
T2 sequence: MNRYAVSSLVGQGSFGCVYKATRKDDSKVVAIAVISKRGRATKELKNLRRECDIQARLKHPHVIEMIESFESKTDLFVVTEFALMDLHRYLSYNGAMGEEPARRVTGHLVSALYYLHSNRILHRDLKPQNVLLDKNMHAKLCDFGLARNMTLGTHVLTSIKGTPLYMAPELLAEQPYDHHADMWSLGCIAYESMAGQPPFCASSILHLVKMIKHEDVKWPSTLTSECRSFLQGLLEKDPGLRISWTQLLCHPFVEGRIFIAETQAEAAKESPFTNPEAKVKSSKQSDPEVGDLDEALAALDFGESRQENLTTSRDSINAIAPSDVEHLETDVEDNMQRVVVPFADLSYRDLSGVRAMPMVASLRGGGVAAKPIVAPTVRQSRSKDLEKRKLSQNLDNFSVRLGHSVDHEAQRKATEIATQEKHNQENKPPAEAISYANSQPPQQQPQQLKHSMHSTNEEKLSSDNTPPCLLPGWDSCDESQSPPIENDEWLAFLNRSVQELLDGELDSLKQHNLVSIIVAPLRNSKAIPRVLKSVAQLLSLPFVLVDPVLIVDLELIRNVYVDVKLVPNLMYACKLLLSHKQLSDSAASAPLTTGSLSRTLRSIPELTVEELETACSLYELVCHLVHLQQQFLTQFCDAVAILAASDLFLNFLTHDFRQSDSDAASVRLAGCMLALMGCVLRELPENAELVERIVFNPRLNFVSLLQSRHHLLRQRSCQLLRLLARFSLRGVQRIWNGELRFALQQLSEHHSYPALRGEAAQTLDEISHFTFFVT

T3: FuΔ361–390 (Drosophila) (UniProt P23647)
T3 sequence: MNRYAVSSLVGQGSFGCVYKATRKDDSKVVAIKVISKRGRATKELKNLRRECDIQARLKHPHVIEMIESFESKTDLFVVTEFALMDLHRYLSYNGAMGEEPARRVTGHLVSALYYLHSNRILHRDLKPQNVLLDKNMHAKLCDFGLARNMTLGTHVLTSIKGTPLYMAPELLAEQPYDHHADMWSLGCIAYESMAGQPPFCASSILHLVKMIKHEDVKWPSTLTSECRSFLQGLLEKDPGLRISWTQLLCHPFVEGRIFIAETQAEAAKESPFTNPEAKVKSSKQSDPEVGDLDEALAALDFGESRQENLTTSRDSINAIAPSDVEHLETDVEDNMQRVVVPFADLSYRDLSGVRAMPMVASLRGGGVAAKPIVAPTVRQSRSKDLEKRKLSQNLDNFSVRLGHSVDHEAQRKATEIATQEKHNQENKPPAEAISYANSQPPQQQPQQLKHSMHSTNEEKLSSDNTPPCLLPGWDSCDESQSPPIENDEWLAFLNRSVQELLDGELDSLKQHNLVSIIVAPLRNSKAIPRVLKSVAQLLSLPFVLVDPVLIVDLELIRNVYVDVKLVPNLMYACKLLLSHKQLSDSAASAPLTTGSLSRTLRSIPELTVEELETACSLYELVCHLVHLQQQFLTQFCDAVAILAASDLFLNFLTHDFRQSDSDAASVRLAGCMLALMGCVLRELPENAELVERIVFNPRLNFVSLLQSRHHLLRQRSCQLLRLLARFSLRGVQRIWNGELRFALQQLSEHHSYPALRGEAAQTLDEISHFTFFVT


Key:
Test in all cases: co-IP; S2R+ cells co-transfected with HA-Fu variants, V5-Su(fu) and Myc-Cos2, and with Fu 3'UTR dsRNA to knock down endogenous Fu; IP with anti-HA matrix; with or without HhN stimulation (Fig 2C); lysis in PBS with 1.0% Triton X-100
Fu361-805 (Drosophila) = biological target: T1, Fu361-805 (Drosophila)
[1] = biological target: T2, Fu^K33AΔ361–390 (Drosophila)
FuΔ361–390 (Drosophila) = biological target: T3, FuΔ361–390 (Drosophila)

Binder | binding (Fu361-805 (Drosophila)) | binding [1] | binding (FuΔ361–390 (Drosophila))
Myc-tagged Cos2 (Myc-Cos2) (protein, UniProt O16844 1-1201) MEIPIQVAVRIFPHRELKDLLRSFGPTEPKKDAQAVDEGADSKDSEAQVPAAEKDNPSISETDPNGNAEQDSAADSKTIPDANGNDSGQKDYPDSAYCVQAIPISASALGLPSALPGGDPMDSIAAGLIQVGPHTVPVTHALPSSSSQEQVYHQTVFPLITLFLEGFDASVVTYGQRGQGKSYTLYGNVQDPTLTDSTEGVVQLCVRDIFSHISLHPERTYAINVGFVEICGGDVCDLLGMGNIHCTNVDAVFHWLQVGLSARQSLPAHTLFTLTLEQQWVSKEGLLQHRLSTASFSDLCGTERCGDQPPGRPLDAGLCMLEQVISTLTDPGLMYGVNGNIPYGQTTLTTLLKDSFGGRAQTLVILCVSPLEEHLPETLGNLQFAFKVQCVRNFVIMNTYSDDNTMIVQPAEPVPESNSSAGPLSQAGPGDNFGLQFAASQWSKLVTNAEGLFSKLIDSKLITEVEKEQIEEWLFLKQECEECLSSTEAMRQQKQLVPILEAEEPEDVNSEAANSESPNSDNENDTDNESHRPDLDDKIESLMEEFRDKTDALILEKHAEYLSKHPKAVMQSQDREIEAQPPEENGDDRKVSIGSRRRSVQPGASLSTAELAMLNRVASQQPPPPIDPESVVDPLESSSGEGIRQAALAAAAATAPIEQLQKKLRKLVAEIEGKQRQLREIEETIQVKQNIIAELVKNSDTRSHAKQRFHKKRAKLEAECDKAKKQLGKALVQGRDQSEIERWTTIIGHLERRLEDLSSMKHIAGESGQKVKKLQQSVGESRKQADDLQKKLRKECKLRCQMEAELAKLRESRETGKELVKAQGSPEQQGRQLKAVQARITHLNHILREKSDNLEEQPGPEQQETLRHEIRNLRGTRDLLLEERCHLDRKLKRDKVLTQKEERKLLECDEAIEAIDAAIEFKNEMITGHRSIDTSDRIQREKGEQMLMARLNRLSTEEMRTLLYKYFTKVIDLRDSSRKLELQLVQLERERDAWEWKERVLSNAVRQARLEGERNAVLLQRQHEMKLTLMLRHMAEETSASSASYGERALAPACVAPPVQASSDFDYDHFYKGGGNPSKALIKAPKPMPTGSALDKYKDKEQRSGRNIFAKFHVLTRYASAAAAGSSGSTAEESTALIESTTTATATTTSTTTTGAVGKVKDKALVSFRPEQLKRLMPAPTATKVTRQKNKIIIQDASRRN | binds | binds | binds
V5-tagged Suppressor of fused (V5-Su(fu)) (protein, UniProt Q9VG38 1-468) MAEANLDKKPEVKPPPGLKAIIDHLGQVYPNQPNPLQVTTLLKYWLGGQDPLDYISMYNYPGDVDRNVPPHWHYISFGLSDLHGDERVHLREEGVTRSGMGFELTFRLAKTEIELKQQIENPEKPQRPPTWPANLLQAIGRYCFQTGNGLCFGDNIPWRKSLDGSTTSKLQNLLVAQDPQLGCIDTPTGTVDFCQIVGVFDDELEQASRWNGRGVLNFLRQDMQTGGDWLVTNMDRQMSVFELFPETLLNLQDDLEKQGSDLAGVNADFTFRELKPTKEVKEEVDFQALSEKCANDENNRQLTDTQMKREEPSFPQSMSMSSNSLHKSCPLDFQAQAPNCISLDGIEITLAPGVAKYLLLAIKDRIRHGRHFTFKAQHLALTLVAESVTGSAVTVNEPYGVLGYWIQVLIPDELVPRLMEDFRSAGLDEKCEPKERLELEWPDKNLKLIIDQPEPVLPMSLDAAPLKM | binds weakly | no binding | no binding
